The list shows a part of the results.

The target in the assay is T1, MBP-FoxP1dN (Mus musculus, UniProt P58462 326-579).
T1 sequence: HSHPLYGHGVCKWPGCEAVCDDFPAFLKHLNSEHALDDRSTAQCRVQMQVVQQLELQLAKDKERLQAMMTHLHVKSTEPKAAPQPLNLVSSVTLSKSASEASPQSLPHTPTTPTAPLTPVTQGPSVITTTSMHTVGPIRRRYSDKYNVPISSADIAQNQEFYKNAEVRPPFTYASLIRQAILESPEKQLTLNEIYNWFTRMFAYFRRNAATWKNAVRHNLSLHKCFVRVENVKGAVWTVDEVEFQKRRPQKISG
Nature of the assay: PD-seq (MBP pull-down with sequencing); 20 mM Tris-HCl pH 7.5, 100 mM NaCl, 1.5 mM MgCl2, 0.4 uM protein, 0.1 uM dsDNA library, 30 min, room temperature, amylose pull-down; high values mean tight binding. As to conditions: protein: recombinant; tags: His6-MBP; chain copies: 2; dsDNA, one strand shown. A digest of the protocol:
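Binding is the reads-per-million enrichment of pull-down relative to input, pooled across replicates. For this, 0.4 µM His6-MBP-tagged mouse FoxP3 or FoxP1 fragment lacking the N-terminus, made in E. coli, was incubated with 0.1 µM Klenow-filled double-stranded degenerate DNA library for 30 min at room temperature in Tris pH 7.5 buffer with NaCl and MgCl2. Complexes bound to amylose resin were washed three times before proteinase K released the DNA for PCR barcoding and Illumina sequencing.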
For “GATGATTGTTCTCCCAGCTGATGAATTAGAAATTTCGAGTAAACAAATTTTCCTAATCTTTCTGTTCAAGCGCCATCTAC”, the binding signal is 0.918 RPM ratio (pull-down/input).

“GATGATTGTTCTCCCAGCTGATGAATTTTCATGATCGAGTAAACAAATTTTCCTAATCTTTCTGTTCAAGCGCCATCTAC”: the binding signal is 0.966 RPM ratio (pull-down/input).

With “GATGATTGTTCTCCCAGCTGATGAATTGAATCATTCGAGTAAACAAATTTTCCTAATCTTTCTGTTCAAGCGCCATCTAC”, the binding signal is 1.04 RPM ratio (pull-down/input).

Regarding “GATGATTGTTCTCCCAGCTGATGAATTGTTCGGGTCGAGTAAACAAATTTTCCTAATCTTTCTGTTCAAGCGCCATCTAC”, the binding signal is 0.941 RPM ratio (pull-down/input).

On to “GATGATTGTTCTCCCAGCTGATGAATTGGCAGGATCGAGTAAACAAATTTTCCTAATCTTTCTGTTCAAGCGCCATCTAC”, for which the binding signal is 0.794 RPM ratio (pull-down/input).

Take “GATGATTGTTCTCCCAGCTGATGAATTAAACATTTCGAGTAAACAAATTTTCCTAATCTTTCTGTTCAAGCGCCATCTAC”: the binding signal is 1.42 RPM ratio (pull-down/input).

In the case of “GATGATTGTTCTCCCAGCTGATGAATTGATATAATCGAGTAAACAAATTTTCCTAATCTTTCTGTTCAAGCGCCATCTAC”, the binding signal was 1.32 RPM ratio (pull-down/input).

In the case of “GATGATTGTTCTCCCAGCTGATGAATTTCACGGGTCGAGTAAACAAATTTTCCTAATCTTTCTGTTCAAGCGCCATCTAC”, the binding signal is 0.753 RPM ratio (pull-down/input).

On to “GATGATTGTTCTCCCAGCTGATGAATTTCCGTAATCGAGTAAACAAATTTTCCTAATCTTTCTGTTCAAGCGCCATCTAC”, for which the binding signal is 1.25 RPM ratio (pull-down/input).

Regarding “GATGATTGTTCTCCCAGCTGATGAATTCGGGAATTCGAGTAAACAAATTTTCCTAATCTTTCTGTTCAAGCGCCATCTAC”, the binding signal was 0.845 RPM ratio (pull-down/input).

Regarding “GATGATTGTTCTCCCAGCTGATGAATTCGCTGCATCGAGTAAACAAATTTTCCTAATCTTTCTGTTCAAGCGCCATCTAC”, the binding signal was 1.06 RPM ratio (pull-down/input).

As to “GATGATTGTTCTCCCAGCTGATGAATTATCAGTCTCGAGTAAACAAATTTTCCTAATCTTTCTGTTCAAGCGCCATCTAC”, the binding signal is 0.945 RPM ratio (pull-down/input).

On to “GATGATTGTTCTCCCAGCTGATGAATTGAAGCCCTCGAGTAAACAAATTTTCCTAATCTTTCTGTTCAAGCGCCATCTAC”, for which the binding signal was 0.676 RPM ratio (pull-down/input).

On to “GATGATTGTTCTCCCAGCTGATGAATTTAAGGATTCGAGTAAACAAATTTTCCTAATCTTTCTGTTCAAGCGCCATCTAC”, for which the binding signal is 0.931 RPM ratio (pull-down/input).

Turning to “GATGATTGTTCTCCCAGCTGATGAATTTCCACTATCGAGTAAACAAATTTTCCTAATCTTTCTGTTCAAGCGCCATCTAC”, the binding signal was 0.933 RPM ratio (pull-down/input).

“GATGATTGTTCTCCCAGCTGATGAATTTTAGGTGTCGAGTAAACAAATTTTCCTAATCTTTCTGTTCAAGCGCCATCTAC”: the binding signal is 0.902 RPM ratio (pull-down/input).

Take “GATGATTGTTCTCCCAGCTGATGAATTCGAAAAATCGAGTAAACAAATTTTCCTAATCTTTCTGTTCAAGCGCCATCTAC”: the binding signal is 1.02 RPM ratio (pull-down/input).

Regarding “GATGATTGTTCTCCCAGCTGATGAATTGGCGTCGTCGAGTAAACAAATTTTCCTAATCTTTCTGTTCAAGCGCCATCTAC”, the binding signal is 0.851 RPM ratio (pull-down/input).

With “GATGATTGTTCTCCCAGCTGATGAATTACGGCTTTCGAGTAAACAAATTTTCCTAATCTTTCTGTTCAAGCGCCATCTAC”, the binding signal is 0.992 RPM ratio (pull-down/input).

Regarding “GATGATTGTTCTCCCAGCTGATGAATTAATTTTATCGAGTAAACAAATTTTCCTAATCTTTCTGTTCAAGCGCCATCTAC”, the binding signal was 0.907 RPM ratio (pull-down/input).

For “GATGATTGTTCTCCCAGCTGATGAATTCTTAGGTTCGAGTAAACAAATTTTCCTAATCTTTCTGTTCAAGCGCCATCTAC”, the binding signal is 0.874 RPM ratio (pull-down/input).

For “GATGATTGTTCTCCCAGCTGATGAATTCAACCTATCGAGTAAACAAATTTTCCTAATCTTTCTGTTCAAGCGCCATCTAC”, the binding signal is 0.932 RPM ratio (pull-down/input).

“GATGATTGTTCTCCCAGCTGATGAATTTTAGATGTCGAGTAAACAAATTTTCCTAATCTTTCTGTTCAAGCGCCATCTAC”: the binding signal was 0.977 RPM ratio (pull-down/input).

“GATGATTGTTCTCCCAGCTGATGAATTGTGTTTATCGAGTAAACAAATTTTCCTAATCTTTCTGTTCAAGCGCCATCTAC”: the binding signal is 2.92 RPM ratio (pull-down/input).

“GATGATTGTTCTCCCAGCTGATGAATTTAATCACTCGAGTAAACAAATTTTCCTAATCTTTCTGTTCAAGCGCCATCTAC”: the binding signal is 1.02 RPM ratio (pull-down/input).

Consider “GATGATTGTTCTCCCAGCTGATGAATTGGTAACTTCGAGTAAACAAATTTTCCTAATCTTTCTGTTCAAGCGCCATCTAC”, for which the binding signal was 0.983 RPM ratio (pull-down/input).

Regarding “GATGATTGTTCTCCCAGCTGATGAATTCTTGGTATCGAGTAAACAAATTTTCCTAATCTTTCTGTTCAAGCGCCATCTAC”, the binding signal was 1 RPM ratio (pull-down/input).

With “GATGATTGTTCTCCCAGCTGATGAATTGGCAGGTTCGAGTAAACAAATTTTCCTAATCTTTCTGTTCAAGCGCCATCTAC”, the binding signal is 0.781 RPM ratio (pull-down/input).

“GATGATTGTTCTCCCAGCTGATGAATTCTTCCGCTCGAGTAAACAAATTTTCCTAATCTTTCTGTTCAAGCGCCATCTAC”: the binding signal is 0.839 RPM ratio (pull-down/input).

As for “GATGATTGTTCTCCCAGCTGATGAATTAAATCGATCGAGTAAACAAATTTTCCTAATCTTTCTGTTCAAGCGCCATCTAC”, the binding signal was 0.947 RPM ratio (pull-down/input).

In the case of “GATGATTGTTCTCCCAGCTGATGAATTTATAGGCTCGAGTAAACAAATTTTCCTAATCTTTCTGTTCAAGCGCCATCTAC”, the binding signal was 0.927 RPM ratio (pull-down/input).

Values taken from publication PMC12820563, “FoxP3 forms a head-to-head dimer in vivo and stabilizes its multimerization on adjacent microsatellites”.
